Data taken from PubChem BioAssay (Tox21).
Where “and” joins values, the source holds several entries; their conditions need not be identical. Equal entries are not always repeated. Inconclusive results, whose numbers are uncertain, are shown with a selection of clear calls. Potencies beside an inconclusive call are fits to weak or partial responses and may not hold up. Calls of active or inactive are those of the source. Unless noted, calls follow the shape of the dose curve; as a rule, active = well fitted cell-killing curve with a large enough effect in the repeat runs; inconclusive = weak or mixed curves; inactive = no such curve, though single readings can be large or run the other way.

tested on: not listed separately; assay: qHTS assay to identify small molecule antagonists of the androgen receptor (AR) signaling pathway - cell viability counter screen (AID 743033; also: nearly all actives have a fitted effect of over 45% in size); conditions: AR-bla HEK293 viability, CellTiter-Glo luminescence, 16 h; activity change, negative = cytotoxicity: at 58.5 µM (top of the series) unless noted
Potency is read from the fitted curve at half-maximal effect; tags tell the direction and shape of the fitted curve or compound fluorescence and quenching.

Q: For `CCCCCCCCCCCCCC[N+](C)(C)C`, which Potency is on record?
A: Its Potency is active: 15.1 µM and inconclusive: 42.2 µM [cytotoxic, partial curve, poor fit] and active: 21.8 µM.

Q: With `CC(O)C#CC(C)O` (stereo unspecified) as the compound, how does the Potency read?
A: Its Potency is active: 48.5 µM.

Q: Which Potency does the source give for `CCN(CC)c1ccc(C(=C2C=CC(=[N+](CC)CC)C=C2)c2ccc(S(=O)(=O)O)cc2S(=O)(=O)[O-])cc1` here?
A: Its Potency is active: 21.9 µM.

Q: Which Potency does the source give for `O[C@@H](c1cc(C(F)(F)F)nc2c(C(F)(F)F)cccc12)[C@H]1CCCCN1` here?
A: Its Potency is active: 23.9 µM.

Q: With `c1cc(C(c2ccc(OCC3CO3)cc2)c2ccc(OCC3CO3)cc2)ccc1OCC1CO1` (stereo unspecified) as the compound, how does the Potency read?
A: Its Potency is inconclusive: 61.6 µM [cytotoxic, single point].

Q: With `O=C(O)CCCCCCCCCCC(=O)O` as the compound, how does the Potency read?
A: The Potency was inconclusive: 24.5 µM [cytotoxic, partial curve, poor fit].

Q: With `c1cnc2c(c1)ccc1cccnc12` as the compound, how does the Potency read?
A: Its Potency is inconclusive: 3.12 µM [cytotoxic, full curve] and active: 4.9 µM and inconclusive: 3.47 µM [cytotoxic, full curve].

Q: With `CC1(C)CCC(C)(C)c2cc(C(=O)Nc3ccc(C(=O)O)cc3)ccc21` as the compound, how does the Potency read?
A: The Potency was inconclusive: 61.6 µM [cytotoxic, single point].

Q: For `O=Cc1ccccc1C=O`, which Potency is on record?
A: The Potency was inconclusive: 6.92 µM [cytotoxic, full curve].

Q: With `C=CC(=O)OCCOCC(CC)(COCCOC(=O)C=C)COCCOC(=O)C=C` as the compound, how does the Potency read?
A: The Potency was active: 22.8 µM.

Q: Which Potency does the source give for `CN1CCN(C2Cc3ccccc3Sc3ccc(Cl)cc32)CC1` (stereo unspecified) here?
A: Its Potency is inconclusive: 23.9 µM [cytotoxic].

Q: For `C=C[C@](C)(O)CC[C@@H]1[C@@]2(C)CCCC(C)(C)[C@@H]2CC[C@@]1(C)O`, which Potency is on record?
A: Its Potency is inconclusive: 49 µM [cytotoxic, partial curve].

Q: With `CC(=O)OC(OC(C)=O)c1ccc([N+](=O)[O-])o1` as the compound, how does the Potency read?
A: Its Potency is active: 22.3 µM.

Q: With `CN(C)c1ccc2nc3ccc(=[N+](C)C)cc-3sc2c1` as the compound, how does the Potency read?
A: Its Potency is inconclusive: 10.7 µM [cytotoxic, partial curve].

Q: For `CC(C)(C)c1cc(O)c(C(C)(C)C)cc1O`, which Potency is on record?
A: Its Potency is inconclusive: 49 µM [cytotoxic, single point].

Q: Which Potency does the source give for `COC(=O)C1=C(C)NC(C)=C(C(=O)OCCN(C)Cc2ccccc2)C1c1cccc([N+](=O)[O-])c1` (stereo unspecified) here?
A: Its Potency is inconclusive: 26.8 µM [cytotoxic] and active: 48.7 µM.

target: Androgen receptor (Homo sapiens) (UniProt P10275); assay: qHTS assay to identify small molecule antagonists of the androgen receptor (AR) signaling pathway (AID 743035; active = well fitted inhibition curve with a large enough effect in the signal ratio in the repeat runs, not every such curve was filed as active; inconclusive = weak or mixed curves, or effect the other way; inactive = no such curve, though single readings can be large or run the other way; the % refers to the signal ratio; as to activity change, negative = inhibition: % is scaled to controls: 0 for no effect and ±100 for the full control effect); conditions: HEK293 AR-UAS-bla, R1881-stimulated, beta-lactamase FRET, 16 h; activity change, negative = inhibition: at 58.5 µM (top of the series) unless noted
Outline: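 Antagonist mode: AR-bla HEK293 cells co-treated with test compounds and agonist R1881 for 16 h at 37C, 5% CO2. Beta-lactamase activity read as FRET fluorescence after 2 h room-temperature substrate loading.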

Sequence of UniProt P10275 (P10275 whole entry, looked up): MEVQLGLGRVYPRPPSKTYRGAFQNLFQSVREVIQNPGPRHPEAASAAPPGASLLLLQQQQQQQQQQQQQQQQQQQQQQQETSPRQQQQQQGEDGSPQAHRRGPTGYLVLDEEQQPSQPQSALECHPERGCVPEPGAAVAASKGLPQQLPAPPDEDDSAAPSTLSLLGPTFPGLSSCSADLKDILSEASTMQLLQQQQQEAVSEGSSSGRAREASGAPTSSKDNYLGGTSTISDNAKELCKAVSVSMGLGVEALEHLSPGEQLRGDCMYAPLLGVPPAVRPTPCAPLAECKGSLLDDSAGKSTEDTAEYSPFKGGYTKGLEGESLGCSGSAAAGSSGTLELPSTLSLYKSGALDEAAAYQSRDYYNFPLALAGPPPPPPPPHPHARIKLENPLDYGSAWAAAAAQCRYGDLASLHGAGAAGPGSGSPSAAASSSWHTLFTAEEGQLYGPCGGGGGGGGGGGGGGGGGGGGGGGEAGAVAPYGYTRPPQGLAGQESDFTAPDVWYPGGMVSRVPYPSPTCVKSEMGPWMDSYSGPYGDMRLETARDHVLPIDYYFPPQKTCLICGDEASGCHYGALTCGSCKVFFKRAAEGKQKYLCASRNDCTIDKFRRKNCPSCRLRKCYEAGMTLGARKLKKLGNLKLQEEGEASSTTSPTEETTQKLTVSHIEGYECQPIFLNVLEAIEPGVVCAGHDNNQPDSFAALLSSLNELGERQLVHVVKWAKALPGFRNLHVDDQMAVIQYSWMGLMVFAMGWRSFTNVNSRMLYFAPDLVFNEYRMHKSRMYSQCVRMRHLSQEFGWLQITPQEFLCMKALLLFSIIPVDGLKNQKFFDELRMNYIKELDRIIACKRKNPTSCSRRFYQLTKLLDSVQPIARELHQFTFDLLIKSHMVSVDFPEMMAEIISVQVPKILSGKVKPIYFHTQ

Q: For `O=C1C=CC(=O)N1`, which Potency is on record?
A: Its Potency is inconclusive: 22.5 µM.

Q: Which Potency does the source give for `c1cc(C(c2ccc(OCC3CO3)cc2)c2ccc(OCC3CO3)cc2)ccc1OCC1CO1` (stereo unspecified) here?
A: Its Potency is inconclusive: 21.9 µM [rising, full curve].

Q: Which Potency does the source give for `CCCCCCCCCCCCOC(=O)c1ccc(O)cc1` here?
A: The Potency was “inactive”.

Q: Which Potency does the source give for `CC1(C)CCC(C)(C)c2cc(C(=O)Nc3ccc(C(=O)O)cc3)ccc21` here?
A: Its Potency is active: 49 µM.

Q: Which Potency does the source give for `N=C1C=CC(=C(c2ccc(N)cc2)c2ccc(N)cc2)C=C1` here?
A: The Potency was active: 2.19 µM.

Q: For `CN1CCN(C2Cc3ccccc3Sc3ccc(Cl)cc32)CC1` (stereo unspecified), which Potency is on record?
A: Its Potency is inconclusive: 26.8 µM [falling, single point].

Q: With `COC1=C(OC)C(=O)C(CCCCCCCCCCO)=C(C)C1=O` as the compound, how does the Potency read?
A: Its Potency is active: 16.9 µM.

Q: With `CCCOC(C)=O` as the compound, how does the activity change, negative = inhibition read?
A: The activity change, negative = inhibition was inconclusive: -3.46%.

Q: For `N#CSc1ccc(N)c([N+](=O)[O-])c1`, which Potency is on record?
A: Its Potency is active: 43.9 µM.

Q: Which Potency does the source give for `CC(C)(O)c1ccccc1CC[C@@H](SCC1(CC(=O)O)CC1)c1cccc(/C=C/c2ccc3ccc(Cl)cc3n2)c1` here?
A: The Potency was “inactive”.

Q: For `CC(C)(C)c1cc(O)c(C(C)(C)C)cc1O`, which Potency is on record?
A: Its Potency is active: 43.6 µM.

Q: Which Potency does the source give for `CC(O)COc1ccccc1` (stereo unspecified) here?
A: The Potency was “inactive”.

Q: Which Potency does the source give for `O=C1NCCN1CCN1CCC(c2cn(-c3ccc(F)cc3)c3ccc(Cl)cc23)CC1` here?
A: Its Potency is active: 16.9 µM and active: 21.3 µM.

target: Androgen receptor (Homo sapiens) (UniProt P10275); assay: qHTS assay to identify small molecule agonists of the androgen receptor (AR) signaling pathway (AID 743036; active = well fitted activation curve with a large enough effect in the signal ratio in the repeat runs, with a control signal flat, not every such curve was filed as active; inconclusive = weak or mixed curves, or effect the other way; inactive = no such curve, though single readings can be large or run the other way; the % refers to the signal ratio; as to activation: % is scaled to controls: 0 for no effect and ±100 for the full control effect); conditions: HEK293 AR-UAS-bla GripTite, beta-lactamase FRET ratio, 16 h; activation: at 62.4 µM (top of the series) unless noted
Outline: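 Screening used 2,000 AR-bla HEK293 cells per well, treated 16 h at 37C with test compounds in DMSO alongside positive and DMSO-only controls; beta-lactamase activity was then read by LiveBLAzer B/G FRET fluorescence after 2 h at room temperature.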

Q: Which Potency does the source give for `O=C1C=CC(=O)N1` here?
A: Its Potency is inconclusive: 44.8 µM [falling, partial curve].

Q: Which Potency does the source give for `NC(=O)c1ccncc1` here?
A: Its Potency is “inactive”.

Q: With `c1cc(C(c2ccc(OCC3CO3)cc2)c2ccc(OCC3CO3)cc2)ccc1OCC1CO1` (stereo unspecified) as the compound, how does the Potency read?
A: The Potency was inconclusive: 30.9 µM [rising, partial curve].

Q: For `CCCCCCCCCCCCOC(=O)c1ccc(O)cc1`, which Potency is on record?
A: Its Potency is inconclusive: 44 µM [activator].

Q: With `O=Cc1ccccc1C=O` as the compound, how does the Potency read?
A: The Potency was inconclusive: 6.74 µM [activator, partial curve] and inconclusive: 1.1 µM [activator, full curve].

Q: For `C[Si](C)(C)Cl`, which Potency is on record?
A: Its Potency is “inactive”.

Q: For `N=C1C=CC(=C(c2ccc(N)cc2)c2ccc(N)cc2)C=C1`, which Potency is on record?
A: Its Potency is inconclusive: 54.9 µM [single point].

Q: Which Potency does the source give for `CN1CCN(C2Cc3ccccc3Sc3ccc(Cl)cc32)CC1` (stereo unspecified) here?
A: The Potency was “inactive”.

Q: With `CCCC(=O)OC[C@@H](OC(=O)CCC)[C@@H](OC(=O)CCC)[C@H](Cn1c2nc(=O)[nH]c(=O)c-2nc2cc(C)c(C)cc21)OC(=O)CCC` as the compound, how does the Potency read?
A: Its Potency is inconclusive: 23.9 µM [partial curve].

Q: For `COC1=C(OC)C(=O)C(CCCCCCCCCCO)=C(C)C1=O`, which Potency is on record?
A: The Potency was inconclusive: 10.7 µM [rising, partial curve].

Q: With `N#CSc1ccc(N)c([N+](=O)[O-])c1` as the compound, how does the activation read?
A: Its activation is inconclusive: 1.02% [at 79.1 µM].

Q: With `CC(C)(O)c1ccccc1CC[C@@H](SCC1(CC(=O)O)CC1)c1cccc(/C=C/c2ccc3ccc(Cl)cc3n2)c1` as the compound, how does the Potency read?
A: The Potency was inconclusive: 26.8 µM [rising, partial curve, poor fit].
